Test results: the supplement of paper PMC12645437, “Orthogonal IMiD-Degron Pairs Induce Selective Protein Degradation in Cells” (ACS Chemical Biology, 2025)
Some of the results follow.

B1: Q9UKT9 (peptide)
chain: FSCPICGALFTQKGNLLRHIKL
B2: Q9UKT9 (peptide)
chain: FNCNVCGADFTQKGNLLRHIKL
B3: Q9UKT9 (peptide)
chain: LYCPICGFECTQKGNLLRHIKL
B4: Q9UKT9 (peptide)
chain: FACPICGRSFTQKGNLLRHIKL
B5: Q9UKT9 (peptide)
chain: FRCPICGHTFTQKGNLLRHIKL
B6: Q9UKT9 (peptide)
chain: FECEICGAQFTQKGNLLRHIKL
B7: Q9UKT9 (peptide)
chain: FICNQCGRKFTQKGNLLRHIKL
B8: Q9UKT9 (peptide)
chain: FFCSVCGHAFTQKGNLLRHIKL
B9: Q9UKT9 (peptide)
chain: FSCSVCGHCFTQKGNLLRHIKL
B10: Q9UKT9 (peptide)
chain: FDCPVCGAWFTQKGNLLRHIKL
B11: Q9UKT9 (peptide)
chain: FFCNICGAHFTQKGNLLRHIKL
B12: Q9UKT9 (peptide)
chain: LMCEICGFFCTQKGNLLRHIKL
B13: Q9UKT9 (peptide)
chain: FLCNQCGHIFTQKGNLLRHIKL
B14: Q9UKT9 (peptide)
chain: LICNQCGFMCTQKGNLLRHIKL
B15: Q9UKT9 (peptide)
chain: FRCSVCGHSFTQKGNLLRHIKL
B16: Q9UKT9 (peptide)
chain: FLCPICGACFTQKGNLLRHIKL
B17: Q9UKT9 (peptide)
chain: FACPICGHDFTQKGNLLRHIKL
B18: Q9UKT9 (peptide)
chain: FACNVCGAPFTQKGNLLRHIKL
B19: Q9UKT9 (peptide)
chain: FWCEICGAIFTQKGNLLRHIKL
B20: Q9UKT9 (peptide)
chain: FVCNQCGASFTQKGNLLRHIKL
B21: Q9UKT9 (peptide)
chain: FFCDVCGASFTQKGNLLRHIKL
B22: Q9UKT9 (peptide)
chain: FACNICGAFFTQKGNLLRHIKL
B23: Q9UKT9 (peptide)
chain: FQCDICGAPFTQKGNLLRHIKL
B24: Q9UKT9 (peptide)
chain: FMCPVCGASFTQKGNLLRHIKL
B25: Q9UKT9 (peptide)
chain: FTCPICGAGFTQKGNLLRHIKL
B26: Q9UKT9 (peptide)
chain: FFCSVCGHEFTQKGNLLRHIKL
B27: Q9UKT9 (peptide)
chain: FWCDQCGAIFTQKGNLLRHIKL
B28: Q9UKT9 (peptide)
chain: FYCEICGATFTQKGNLLRHIKL
B29: Q9UKT9 (peptide)
chain: FECEICGADFTQKGNLLRHIKL
B30: Q9UKT9 (peptide)
chain: FDCEVCGAHFTQKGNLLRHIKL
B31: Q9UKT9 (peptide)
chain: FACSVCGHWFTQKGNLLRHIKL
B32: Q9UKT9 (peptide)
chain: LECEICGFACTQKGNLLRHIKL
B33: Q9UKT9 (peptide)
chain: FMCDVCGAYFTQKGNLLRHIKL
B34: Q9UKT9 (peptide)
chain: FICEICGHQFTQKGNLLRHIKL
B35: Q9UKT9 (peptide)
chain: FQCEICGHDFTQKGNLLRHIKL
B36: Q9UKT9 (peptide)
chain: FSCNICGASFTQKGNLLRHIKL
B37: Q9UKT9 (peptide)
chain: LKCPICGFYCTQKGNLLRHIKL
B38: Q9UKT9 (peptide)
chain: FMCPVCGACFTQKGNLLRHIKL
B39: Q9UKT9 (peptide)
chain: FACEICGAVFTQKGNLLRHIKL
B40: Q9UKT9 (peptide)
chain: FNCNQCGRFFTQKGNLLRHIKL
B41: Q9UKT9 (peptide)
chain: FACNVCGAWFTQKGNLLRHIKL
B42: Q9UKT9 (peptide)
chain: FHCDICGAAFTQKGNLLRHIKL
B43: Q9UKT9 (peptide)
chain: FKCEICGHCFTQKGNLLRHIKL
B44: Q9UKT9 (peptide)
chain: FQCNICGAHFTQKGNLLRHIKL
B45: Q9UKT9 (peptide)
chain: FYCEICGRQFTQKGNLLRHIKL
B46: Q9UKT9 (peptide)
chain: FGCEVCGALFTQKGNLLRHIKL
B47: Q9UKT9 (peptide)
chain: FICEVCGAWFTQKGNLLRHIKL
B48: Q9UKT9 (peptide)
chain: FLCPQCGAHFTQKGNLLRHIKL
B49: Q9UKT9 (peptide)
chain: FECDICGACFTQKGNLLRHIKL
B50: Q9UKT9 (peptide)
chain: FCCPVCGAHFTQKGNLLRHIKL

Biological target: no compound (DMSO)
Assay: log2 fold change of degron read counts, EGFP-low vs EGFP+ sorted cells; higher = lower degron-EGFP level without compound (poor expression or instability)
Conditions: compound: DMSO control; 18 h
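Further: jurkat cells carrying a lentiviral library of mutant zinc finger degrons fused to EGFP plus mCherry, mCherry+ cells FACS sorted, degron abundance counted by next-generation sequencing.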

| Sequence | log2 fold change of degron read counts |
| --- | --- |
| B1 | 0.439 |
| B2 | -1.56 |
| B3 | 0.591 |
| B4 | -0.148 |
| B5 | -0.099 |
| B6 | -1.35 |
| B7 | -1.03 |
| B8 | 0.197 |
| B9 | -0.326 |
| B10 | -0.193 |
| B11 | 0.447 |
| B12 | 1.57 |
| B13 | 1.2 |
| B14 | 0.511 |
| B15 | 0.153 |
| B16 | 0.258 |
| B17 | -0.738 |
| B18 | 0.683 |
| B19 | 0.868 |
| B20 | -1.24 |
| B21 | -1.5 |
| B22 | 0.463 |
| B23 | -0.799 |
| B24 | 0.276 |
| B25 | -0.713 |

| Sequence | log2 fold change of degron read counts |
| --- | --- |
| B26 | -0.485 |
| B27 | 1.05 |
| B28 | -1.1 |
| B29 | -2.22 |
| B30 | -1.66 |
| B31 | 0.801 |
| B32 | -0.688 |
| B33 | -2.01 |
| B34 | -1.83 |
| B35 | -2.37 |
| B36 | -1.05 |
| B37 | 1.08 |
| B38 | -0.166 |
| B39 | -1.09 |
| B40 | 1.09 |
| B41 | 0.719 |
| B42 | -0.769 |
| B43 | -2.06 |
| B44 | -1.3 |
| B45 | -0.987 |
| B46 | -0.935 |
| B47 | -0.192 |
| B48 | -0.626 |
| B49 | -2.56 |
| B50 | -0.0975 |
